In publication PMC6140323 one finds binding data, which are given here for one substance.

The chains behind the UniProt entries cited, without tags or fusion partners.
UniProt P42858: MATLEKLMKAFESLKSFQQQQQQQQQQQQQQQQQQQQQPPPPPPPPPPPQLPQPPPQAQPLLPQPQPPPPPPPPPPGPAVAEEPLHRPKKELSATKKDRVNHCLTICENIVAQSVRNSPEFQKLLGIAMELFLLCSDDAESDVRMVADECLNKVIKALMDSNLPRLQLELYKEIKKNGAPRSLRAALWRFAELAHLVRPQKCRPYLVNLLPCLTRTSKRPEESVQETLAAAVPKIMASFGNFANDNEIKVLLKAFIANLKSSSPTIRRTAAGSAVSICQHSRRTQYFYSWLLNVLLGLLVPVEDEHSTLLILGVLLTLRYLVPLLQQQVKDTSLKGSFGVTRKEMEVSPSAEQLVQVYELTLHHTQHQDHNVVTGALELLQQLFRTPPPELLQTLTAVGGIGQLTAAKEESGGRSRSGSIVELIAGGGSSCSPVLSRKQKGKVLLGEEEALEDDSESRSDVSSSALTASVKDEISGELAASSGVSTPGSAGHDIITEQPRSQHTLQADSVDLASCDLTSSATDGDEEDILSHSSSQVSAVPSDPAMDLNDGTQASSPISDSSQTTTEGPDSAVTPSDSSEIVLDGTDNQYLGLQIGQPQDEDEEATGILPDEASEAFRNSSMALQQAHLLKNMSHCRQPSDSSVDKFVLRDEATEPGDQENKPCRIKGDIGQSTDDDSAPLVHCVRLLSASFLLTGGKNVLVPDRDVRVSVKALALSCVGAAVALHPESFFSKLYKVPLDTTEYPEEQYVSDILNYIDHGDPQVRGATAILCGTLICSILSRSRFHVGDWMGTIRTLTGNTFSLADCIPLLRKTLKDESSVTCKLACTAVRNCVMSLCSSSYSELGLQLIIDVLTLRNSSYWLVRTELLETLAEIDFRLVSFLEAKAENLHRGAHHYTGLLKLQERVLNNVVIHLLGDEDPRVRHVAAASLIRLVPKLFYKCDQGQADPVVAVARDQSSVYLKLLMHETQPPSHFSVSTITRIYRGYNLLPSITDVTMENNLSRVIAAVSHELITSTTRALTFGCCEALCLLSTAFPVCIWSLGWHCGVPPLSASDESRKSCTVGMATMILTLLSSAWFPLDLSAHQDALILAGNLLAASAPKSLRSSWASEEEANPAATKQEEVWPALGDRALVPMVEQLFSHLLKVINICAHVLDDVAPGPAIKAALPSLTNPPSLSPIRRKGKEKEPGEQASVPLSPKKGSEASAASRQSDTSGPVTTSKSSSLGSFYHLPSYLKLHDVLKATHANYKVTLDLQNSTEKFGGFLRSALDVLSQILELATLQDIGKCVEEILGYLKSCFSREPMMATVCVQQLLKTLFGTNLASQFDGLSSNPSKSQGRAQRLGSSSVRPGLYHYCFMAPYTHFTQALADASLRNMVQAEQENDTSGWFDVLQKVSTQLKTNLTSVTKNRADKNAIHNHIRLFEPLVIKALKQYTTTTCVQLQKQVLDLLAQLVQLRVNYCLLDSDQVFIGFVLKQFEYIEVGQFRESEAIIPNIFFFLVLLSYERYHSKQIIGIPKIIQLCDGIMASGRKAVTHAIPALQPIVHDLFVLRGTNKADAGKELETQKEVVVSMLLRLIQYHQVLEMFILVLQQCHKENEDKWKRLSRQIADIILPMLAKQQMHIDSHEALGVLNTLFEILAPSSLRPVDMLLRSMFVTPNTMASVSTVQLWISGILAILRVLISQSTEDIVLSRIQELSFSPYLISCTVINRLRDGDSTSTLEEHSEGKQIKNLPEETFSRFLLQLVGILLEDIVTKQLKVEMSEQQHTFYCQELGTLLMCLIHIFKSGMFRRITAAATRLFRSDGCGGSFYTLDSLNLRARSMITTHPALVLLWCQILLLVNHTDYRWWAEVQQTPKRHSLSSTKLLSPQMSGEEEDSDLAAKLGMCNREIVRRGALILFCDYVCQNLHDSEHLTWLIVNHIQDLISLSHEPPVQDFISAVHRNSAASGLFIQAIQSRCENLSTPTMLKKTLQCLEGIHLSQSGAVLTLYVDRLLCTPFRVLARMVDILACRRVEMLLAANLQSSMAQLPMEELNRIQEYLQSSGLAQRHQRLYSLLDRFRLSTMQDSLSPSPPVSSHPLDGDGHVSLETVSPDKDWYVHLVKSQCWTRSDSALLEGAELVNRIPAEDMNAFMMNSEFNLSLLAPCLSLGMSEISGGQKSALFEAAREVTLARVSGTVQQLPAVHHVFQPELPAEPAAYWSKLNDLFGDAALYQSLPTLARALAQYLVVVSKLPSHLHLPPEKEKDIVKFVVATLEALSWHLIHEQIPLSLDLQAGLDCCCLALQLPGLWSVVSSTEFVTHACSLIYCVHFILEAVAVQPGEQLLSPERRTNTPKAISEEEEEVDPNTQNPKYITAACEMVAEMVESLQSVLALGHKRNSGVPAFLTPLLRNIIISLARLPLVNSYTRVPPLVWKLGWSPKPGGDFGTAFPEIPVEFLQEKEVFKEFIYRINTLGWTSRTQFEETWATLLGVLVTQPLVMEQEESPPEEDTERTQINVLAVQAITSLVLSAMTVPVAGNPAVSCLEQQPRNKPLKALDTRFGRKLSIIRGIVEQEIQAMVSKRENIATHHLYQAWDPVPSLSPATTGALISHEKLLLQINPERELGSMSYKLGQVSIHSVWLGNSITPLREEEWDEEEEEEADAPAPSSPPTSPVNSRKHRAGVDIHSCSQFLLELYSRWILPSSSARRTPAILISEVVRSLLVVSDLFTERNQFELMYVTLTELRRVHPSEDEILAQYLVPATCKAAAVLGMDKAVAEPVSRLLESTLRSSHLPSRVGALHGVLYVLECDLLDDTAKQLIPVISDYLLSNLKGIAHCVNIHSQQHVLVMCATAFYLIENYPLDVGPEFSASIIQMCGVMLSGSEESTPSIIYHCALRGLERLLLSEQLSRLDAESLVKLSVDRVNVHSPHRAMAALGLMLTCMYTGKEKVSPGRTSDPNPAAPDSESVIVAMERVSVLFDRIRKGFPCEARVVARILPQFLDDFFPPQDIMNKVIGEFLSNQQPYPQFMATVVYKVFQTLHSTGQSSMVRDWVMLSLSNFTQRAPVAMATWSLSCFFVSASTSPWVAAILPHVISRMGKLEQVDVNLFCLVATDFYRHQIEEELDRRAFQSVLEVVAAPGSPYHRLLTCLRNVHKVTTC

Where a chain is given by its changes, count along the chain named. Results are given in words; binding and its absence hold for the method and conditions named. Binding seen in cells or lysates may run through a third protein. Some binding calls cover weakened binding; strength is not graded here. For some assays here: Where a sequence is shown, tags or fusion partners need not be part of it.

In experiment [1] the target is T1, endogenous SNX21 (human (endogenous in HEK293-T)) (UniProt Q969T3).
T1 sequence: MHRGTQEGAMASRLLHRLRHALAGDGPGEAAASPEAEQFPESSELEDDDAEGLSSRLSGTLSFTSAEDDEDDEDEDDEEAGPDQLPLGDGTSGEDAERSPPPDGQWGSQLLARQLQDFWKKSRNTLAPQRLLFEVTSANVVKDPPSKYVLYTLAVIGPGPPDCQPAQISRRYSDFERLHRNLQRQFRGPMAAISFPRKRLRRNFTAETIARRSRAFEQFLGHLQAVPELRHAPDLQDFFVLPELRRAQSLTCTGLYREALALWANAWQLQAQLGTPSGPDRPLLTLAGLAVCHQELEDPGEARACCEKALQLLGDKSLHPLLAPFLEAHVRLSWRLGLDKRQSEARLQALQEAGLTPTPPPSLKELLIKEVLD
Put plainly: co-IP; endogenous SNX21 precipitated from HEK293-T lysate with 2 µg anti-SNX21 (rabbit IgG as control) and protein-G agarose, 4°C; western blot for endogenous Htt. A general note: Immunoblotting shows a protein as a band on a membrane.

The target in a further experiment is T2, GFP-SNX21(D68K) (human) (UniProt Q969T3).
T2 sequence: T1 sequence with D68K
Put plainly: co-IP; GFP-nanotrap precipitation of GFP-tagged constructs from transiently transfected HEK293-T lysates (50 mM Tris-HCl pH 7.4, 0.5% NP40), 1 h at 4°C; western blot for endogenous Htt and septins.

Regarding “huntingtin (Htt), endogenous (from UniProt P42858 1-3142)”, the binding result (in experiment [1]; with GFP-SNX21(D68K) (human)) was “binds” throughout.
